Source: the supplement of paper PMC12217912
Some of the results follow. Sequences were assembled here from the parent chain. Values near 0.05 are background.

B1: TEV protease; numbered along this chain (parent)
chain: MGESLFKGPRDYNPISSSICHLTNESDGHTTSLYGIGFGPFIITNKHLFRRNNGTLVVQSLHGVFKVKDTTTLQQHLVDGRDMIIIRMPKDFPPFPQKLKFREPQREERICLVTTNFQTKSMSSMVSDTSCTFPSGDGIFWKHWIQTKDGQCGSPLVSTRDGFIVGIHSASNFTNTNNYFTSVPKNFMELLTNQEAQQWVSGWRLNADSVLWGGHKVFMVKPEEPFQPVKEATQL

Variants of: B1
Experiment: raw area under fraction-flipped curve 0-4 h after induction (AUC4h, not background-subtracted), DNA-recorder readout of cleavage of the substrate (dimensionless); higher = more cleavage of the substrate by the protease variant
Conditions: temperature: 34 °C; time window: 0-4 h after rhamnose induction
Procedure: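 In vivo DNA recorder in E. coli TOP10(DE3) ΔrhaA at 34 °C. Each TEVp single-site mutant (parent TEVp 0) is paired with a single-site variant of the 7-mer TEVs (canonical ENLYFQ|S). The substrate sits between flexible linkers in a Bxb1-sfGFP-TEVs-SsrA fusion, so cleavage stabilises Bxb1 and speeds flipping of a recombination array, read by NGS. The value is the raw area under the fraction-flipped curve over 0-4 h after rhamnose induction (AUC4h), with ≥20 reads per time point. It is not background-subtracted; inactive controls average about 0.047.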
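Further: Bxb1 expression induced with 0.2% (w/v) L-rhamnose at OD600 near 0.5, cultures sampled hourly, flipped fraction per protease–substrate barcode pair counted by paired-end Illumina sequencing.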

| Variant | area with substrate ENLYAQS | area with substrate ENLYDQS | area with substrate ENLYEQS | area with substrate ENLYGQS | area with substrate ENLYHQS | area with substrate ENLYIQS | area with substrate ENLYKQS | area with substrate ENLYLQS | area with substrate ENLYMQS | area with substrate ENLYNQS | area with substrate ENLYPQS | area with substrate ENLYQQS | area with substrate ENLYRQS | area with substrate ENLYSQS | area with substrate ENLYVQS | area with substrate ENLYWQS | area with substrate ENLYYQS | area with substrate ENLYCQS | area with substrate ENLYTQS |
| --- | --- | --- | --- | --- | --- | --- | --- | --- | --- | --- | --- | --- | --- | --- | --- | --- | --- | --- | --- |
| MGESLFKGPRDYNPISSSICHLTNESDGHTTSLYGIGFGPFIITNKHLFRRNNGTLVVQSLHGVFKVKDTTTLQQHLVDGRDMIIIRMPKDFPPFPQKLKFREPQQEERICLVTTNFQTKSMSSMVSDTSCTFPSGDGIFWKHWIQTKDGQCGSPLVSTRDGFIVGIHSASNFTNTNNYFTSVPKNFMELLTNQEAQQWVSGWRLNADSVLWGGHKVFMVKPEEPFQPVKEATQL [R106Q] | 0.0751 | 0.0583 | 0.0738 | 0.0689 | 0.0731 | 0.115 | 0.0417 | 0.0797 | 0.0722 | 0.0675 | 0.0747 | 0.0596 | 0.0604 | 0.0803 | 0.106 | 0.0757 | 0.0621 |  |  |
| MGESLFKGPRDYNPISSSICHLTNESDGHTTSLYGIGFGPFIITNKHLFRRNNGTLVVQSLHGVFKVKDTTTLQQHLVDGRDMIIIRMPKDFPPFPQKLKFREPQREQRICLVTTNFQTKSMSSMVSDTSCTFPSGDGIFWKHWIQTKDGQCGSPLVSTRDGFIVGIHSASNFTNTNNYFTSVPKNFMELLTNQEAQQWVSGWRLNADSVLWGGHKVFMVKPEEPFQPVKEATQL [E108Q] | 0.0599 | 0.0563 | 0.0608 | 0.0208 | 0.0601 | 0.0862 | 0.0608 | 0.0452 |  |  | 0.061 |  |  |  | 0.0771 | 0.0409 | 0.0854 | 0.0774 | 0.058 |
| MGESLFKGPRDYNPISSSICHLTNESDGHTTSLYGIGFGPFIITNKHLFRRNNGTLVVQSLHGVFKVKDTTTLQQHLVDGRDMIIIRMPKDFPPFPQKLKFREPQREERVCLVTTNFQTKSMSSMVSDTSCTFPSGDGIFWKHWIQTKDGQCGSPLVSTRDGFIVGIHSASNFTNTNNYFTSVPKNFMELLTNQEAQQWVSGWRLNADSVLWGGHKVFMVKPEEPFQPVKEATQL [I110V] | 0.0759 | 0.0578 | 0.0738 | 0.0856 | 0.0625 | 0.121 | 0.0771 | 0.0783 | 0.0854 | 0.0739 | 0.0816 |  | 0.0636 | 0.0782 | 0.106 | 0.0974 |  | 0.0807 | 0.0914 |
| MGESLFKGPRDYNPISSSICHLTNESDGHTTSLYGIGFGPFIITNKHLFRRNNGTLVVQSLHGVFKVKDTTTLQQHLVDGRDMIIIRMPKDFPPFPQKLKFREPQREERICAVTTNFQTKSMSSMVSDTSCTFPSGDGIFWKHWIQTKDGQCGSPLVSTRDGFIVGIHSASNFTNTNNYFTSVPKNFMELLTNQEAQQWVSGWRLNADSVLWGGHKVFMVKPEEPFQPVKEATQL [L112A] | 0.048 | 0.0592 | 0.0522 | 0.0607 | 0.0693 | 0.0967 | 0.0477 |  | 0.0741 | 0.0637 | 0.0585 | 0.0547 |  |  | 0.079 |  | 0.0649 | 0.0744 | 0.0596 |
| MGESLFKGPRDYNPISSSICHLTNESDGHTTSLYGIGFGPFIITNKHLFRRNNGTLVVQSLHGVFKVKDTTTLQQHLVDGRDMIIIRMPKDFPPFPQKLKFREPQREERICKVTTNFQTKSMSSMVSDTSCTFPSGDGIFWKHWIQTKDGQCGSPLVSTRDGFIVGIHSASNFTNTNNYFTSVPKNFMELLTNQEAQQWVSGWRLNADSVLWGGHKVFMVKPEEPFQPVKEATQL [L112K] | 0.0707 | 0.0665 | 0.0643 | 0.0517 | 0.0653 | 0.136 |  | 0.0632 | 0.0719 | 0.0584 | 0.0604 | 0.0591 | 0.0632 | 0.0818 | 0.103 |  | 0.0606 |  | 0.0717 |
| MGESLFKGPRDYNPISSSICHLTNESDGHTTSLYGIGFGPFIITNKHLFRRNNGTLVVQSLHGVFKVKDTTTLQQHLVDGRDMIIIRMPKDFPPFPQKLKFREPQREERICTVTTNFQTKSMSSMVSDTSCTFPSGDGIFWKHWIQTKDGQCGSPLVSTRDGFIVGIHSASNFTNTNNYFTSVPKNFMELLTNQEAQQWVSGWRLNADSVLWGGHKVFMVKPEEPFQPVKEATQL [L112T] | 0.0531 | 0.0521 | 0.062 | 0.052 | 0.0514 | 0.0801 |  |  | 0.0605 | 0.0504 | 0.0612 | 0.0716 | 0.0559 | 0.0657 | 0.0605 |  | 0.0583 | 0.0316 | 0.0835 |
| MGESLFKGPRDYNPISSSICHLTNESDGHTTSLYGIGFGPFIITNKHLFRRNNGTLVVQSLHGVFKVKDTTTLQQHLVDGRDMIIIRMPKDFPPFPQKLKFREPQREERICLVTMNFQTKSMSSMVSDTSCTFPSGDGIFWKHWIQTKDGQCGSPLVSTRDGFIVGIHSASNFTNTNNYFTSVPKNFMELLTNQEAQQWVSGWRLNADSVLWGGHKVFMVKPEEPFQPVKEATQL [T115M] | 0.062 | 0.0694 | 0.0727 | 0.0624 | 0.0658 | 0.132 | 0.0562 |  | 0.106 | 0.0524 | 0.0871 |  |  | 0.0692 |  | 0.0825 |  |  | 0.108 |
| MGESLFKGPRDYNPISSSICHLTNESDGHTTSLYGIGFGPFIITNKHLFRRNNGTLVVQSLHGVFKVKDTTTLQQHLVDGRDMIIIRMPKDFPPFPQKLKFREPQREERICLVTTNLQTKSMSSMVSDTSCTFPSGDGIFWKHWIQTKDGQCGSPLVSTRDGFIVGIHSASNFTNTNNYFTSVPKNFMELLTNQEAQQWVSGWRLNADSVLWGGHKVFMVKPEEPFQPVKEATQL [F117L] | 0.0713 |  | 0.0682 |  | 0.078 |  | 0.0589 | 0.0841 | 0.0972 |  | 0.0796 | 0.0583 | 0.0784 |  |  |  | 0.0507 | 0.0948 |  |
| MGESLFKGPRDYNPISSSICHLTNESDGHTTSLYGIGFGPFIITNKHLFRRNNGTLVVQSLHGVFKVKDTTTLQQHLVDGRDMIIIRMPKDFPPFPQKLKFREPQREERICLVTTNFQTASMSSMVSDTSCTFPSGDGIFWKHWIQTKDGQCGSPLVSTRDGFIVGIHSASNFTNTNNYFTSVPKNFMELLTNQEAQQWVSGWRLNADSVLWGGHKVFMVKPEEPFQPVKEATQL [K120A] | 0.0696 | 0.0687 | 0.0735 | 0.0551 | 0.0644 | 0.128 | 0.0591 |  | 0.0931 | 0.0656 |  | 0.029 | 0.0663 |  | 0.0864 | 0.0811 | 0.0499 |  | 0.129 |
